Measurements taken from the supplement of paper PMC4967469.
A lower IC50 marks a more sensitive line; a fit beyond the top or the lowest dose is shown as a bound at that dose. For AUC the same curve is integrated over the 256-fold range of doses and scaled to a fraction; it is 1 without any effect and falls as sensitivity rises. For some assays here: An inferred top dose was calculated from the reported fits.

What was measured:
Experiment in all cases: Viability of human cancer cell lines after 72 h of drug (GDSC screen)
[1] = compound: Cc1nc(Nc2ncc(C(=O)Nc3c(C)cccc3Cl)s2)cc(N2CCN(CCO)CC2)n1 [Dasatinib]; details: top dose 1.28 µM
Description: (§1)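 Human cancer cell lines in 384-well plates, medium with 10% serum, drug for 72 h over a 256-fold dose range (nine 2-fold or five 4-fold steps up to the top dose). Adherent lines were fixed and stained with the nucleic acid dye Syto60, suspension lines read with resazurin; signal relative to control wells, capped at 0 and 100%. One two-parameter sigmoid per drug and line, fitted in a mixed model over all curves with the slope shared within a line.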

[2] = compound: Cc1n[nH]c2ccc(-c3cncc(OC[C@@H](N)Cc4c[nH]c5ccccc45)c3)cc12 [A-443654]; details: top dose 1.024 µM; top dose inferred
Description: as §1

[3] = compound: Cc1cc([N+](=O)[O-])ccc1NS(=O)(=O)c1cc(Cl)ccc1Cl [FH535]; details: top dose 32 µM; top dose inferred
Description: as §1

[4] = compound: COc1cc(N2CCN(C)CC2)ccc1Nc1nc(N)c(C(=O)c2c(Cl)cccc2Cl)s1 [XMD14-99]; details: top dose 10.24 µM; top dose inferred
Description: as §1

[5] = compound: O=C(NC1CCNCC1)c1n[nH]cc1NC(=O)c1c(Cl)cccc1Cl [AT-7519]; details: top dose 10.24 µM; top dose inferred
Description: as §1

Cell Line	AUC [1]	IC50 [1] [nM]	AUC [2]	IC50 [2] [nM]	AUC [3]	IC50 [3] [nM]	AUC [4]	IC50 [4] [nM]	AUC [5]	IC50 [5] [nM]
RPMI-8402 (T-cell lymphoblastic leukaemia, suspension)	0.909	> 1280	0.681	186	0.7	6570	0.836	5300	0.233	127
RPMI-8866 (chronic myeloid leukaemia, suspension)	0.977	> 1280	0.832	590	0.746	9500	0.988	> 10200	0.426	408
RS4-11 (leukaemia, suspension)	0.955	> 1280	0.683	198	0.802	14200	0.937	> 10200	0.262	144
RXF393 (kidney, adherent)	0.352	26.6	0.688	265	0.833	> 32000	0.89	> 10200	0.567	1050
Ramos-2G6-4C10 (Burkitt lymphoma, suspension)	0.961	> 1280	0.647	153	0.707	6910	0.975	> 10200	0.225	118
SBC-1 (small cell lung carcinoma, suspension)	0.813	660	0.641	154	0.892	> 32000	0.989	> 10200	0.863	8310
SF539 (glioma, adherent)	0.912	> 1280	0.948	> 1020	0.772	11200	0.99	> 10200	0.546	842
SH-4 (melanoma, adherent)	0.621	207	0.673	256	0.432	1180	0.956	> 10200	0.889	> 10200
SHP-77 (small cell lung carcinoma, semi-adherent)	0.991	> 1280	0.922	> 1020	0.872	25100	0.989	> 10200	0.96	> 10200
SIMA (neuroblastoma, adherent)	0.941	> 1280	0.984	> 1020	0.77	13700	0.96	> 10200	0.912	> 10200
SJSA-1 (bone, adherent)	0.923	> 1280	0.784	494	0.658	5830	0.973	> 10200	0.581	1100
SK-LMS-1 (soft tissue, adherent)	0.922	> 1280	0.752	326	0.554	2780	0.978	> 10200	0.615	1300
SK-MEL-1 (melanoma, suspension)	0.993	> 1280	0.98	> 1020	0.941	> 32000	0.979	> 10200	0.958	> 10200
SK-MEL-2 (melanoma, adherent)	0.971	> 1280	0.853	847	0.424	1230	0.985	> 10200	0.659	1800
SK-MM-2 (myeloma, suspension)	0.983	> 1280	0.846	798	0.89	> 32000	0.925	> 10200	0.786	4630
SK-PN-DW (Ewing sarcoma, adherent)	0.944	> 1280	0.701	242	0.755	11200	0.985	> 10200	0.76	3730
SK-UT-1 (soft tissue, adherent)	0.871	1020	0.544	83.2	0.505	2070	0.987	> 10200	0.752	3130
SLVL (B-cell lymphoma, suspension)	0.853	1090	0.614	134	0.737	9940	0.925	> 10200	0.165	56.3
SNB75 (glioma, adherent)	0.402	38.2	0.582	119	0.805	26100	0.978	> 10200	0.592	1290
SNU-C1 (large intestine, suspension)	0.98	> 1280	0.89	> 1020	0.961	> 32000	0.98	> 10200	0.78	6450
